Assay in all cases: co-IP; HEK293T cells transfected with HA- and V5-tagged plasmids individually or together; lysed in ice-cold RIPA buffer with protease inhibitors; lysates incubated with anti-HA or anti-V5 beads overnight at 4 °C, washed four times with RIPA; Western blot with anti-V5 HRP or anti-HA HRP
Experiment [1] addresses T1, KSHV viral protein kinase (vPK), wild type, V5-tagged (Kaposi's sarcoma-associated herpesvirus (KSHV)) (UniProt F5HGH5).
T1 sequence: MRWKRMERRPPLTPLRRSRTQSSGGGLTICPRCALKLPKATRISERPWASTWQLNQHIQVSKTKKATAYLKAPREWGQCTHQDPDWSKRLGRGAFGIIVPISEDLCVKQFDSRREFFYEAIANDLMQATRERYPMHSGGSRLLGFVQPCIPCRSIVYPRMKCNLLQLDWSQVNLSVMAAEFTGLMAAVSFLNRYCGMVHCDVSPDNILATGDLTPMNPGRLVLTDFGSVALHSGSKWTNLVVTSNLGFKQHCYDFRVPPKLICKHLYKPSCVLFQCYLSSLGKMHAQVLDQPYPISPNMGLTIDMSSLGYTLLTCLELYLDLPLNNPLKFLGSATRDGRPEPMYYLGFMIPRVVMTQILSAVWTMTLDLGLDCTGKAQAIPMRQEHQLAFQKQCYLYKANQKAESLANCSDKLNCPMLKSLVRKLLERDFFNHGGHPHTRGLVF

Amino acid sequences for entries named in this document (tags omitted). A change or cut given only in a name is not applied to a line headed by its entry. Chains listed by the source or under a name are the forms on record and can include a tag or linker. Residues count along the entry.
UniProt P31751: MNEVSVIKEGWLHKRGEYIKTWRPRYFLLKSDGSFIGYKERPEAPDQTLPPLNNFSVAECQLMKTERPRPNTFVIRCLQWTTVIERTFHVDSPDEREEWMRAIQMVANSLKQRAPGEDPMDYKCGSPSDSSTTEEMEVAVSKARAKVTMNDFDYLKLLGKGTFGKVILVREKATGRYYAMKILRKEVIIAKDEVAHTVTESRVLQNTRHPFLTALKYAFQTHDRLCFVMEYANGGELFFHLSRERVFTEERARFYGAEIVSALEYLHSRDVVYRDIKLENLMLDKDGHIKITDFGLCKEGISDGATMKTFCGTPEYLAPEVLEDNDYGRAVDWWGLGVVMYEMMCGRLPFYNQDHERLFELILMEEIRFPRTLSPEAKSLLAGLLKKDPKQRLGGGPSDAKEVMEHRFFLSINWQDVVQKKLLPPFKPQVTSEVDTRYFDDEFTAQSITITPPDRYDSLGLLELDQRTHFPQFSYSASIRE
UniProt Q9Y243: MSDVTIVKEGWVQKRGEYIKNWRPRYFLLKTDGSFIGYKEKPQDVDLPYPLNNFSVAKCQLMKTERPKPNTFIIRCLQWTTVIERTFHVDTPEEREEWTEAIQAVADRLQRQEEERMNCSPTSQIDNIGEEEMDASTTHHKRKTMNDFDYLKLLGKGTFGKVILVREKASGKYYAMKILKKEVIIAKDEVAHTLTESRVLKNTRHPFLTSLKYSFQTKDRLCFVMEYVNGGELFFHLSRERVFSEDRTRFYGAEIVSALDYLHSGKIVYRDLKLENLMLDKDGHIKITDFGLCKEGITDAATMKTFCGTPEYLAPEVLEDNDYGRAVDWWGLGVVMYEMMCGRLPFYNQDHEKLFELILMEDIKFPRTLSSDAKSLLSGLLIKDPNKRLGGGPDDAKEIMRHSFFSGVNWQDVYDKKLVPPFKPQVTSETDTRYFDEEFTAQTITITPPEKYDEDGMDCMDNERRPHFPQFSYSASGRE
UniProt P31749: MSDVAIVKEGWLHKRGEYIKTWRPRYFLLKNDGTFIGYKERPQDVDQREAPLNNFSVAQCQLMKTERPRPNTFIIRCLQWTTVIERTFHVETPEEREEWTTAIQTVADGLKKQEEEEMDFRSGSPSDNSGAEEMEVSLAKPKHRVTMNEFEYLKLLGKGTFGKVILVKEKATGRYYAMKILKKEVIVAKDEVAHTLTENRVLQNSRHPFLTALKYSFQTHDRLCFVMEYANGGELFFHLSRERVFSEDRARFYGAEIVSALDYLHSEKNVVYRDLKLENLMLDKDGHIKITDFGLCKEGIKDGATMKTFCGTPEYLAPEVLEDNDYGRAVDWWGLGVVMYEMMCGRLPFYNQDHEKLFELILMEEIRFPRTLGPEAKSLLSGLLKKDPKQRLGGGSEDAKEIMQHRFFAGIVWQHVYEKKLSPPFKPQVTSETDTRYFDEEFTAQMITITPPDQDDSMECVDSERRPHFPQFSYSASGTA
AKT1 lacking the PH domain, HA-tagged (pCDNA3-HA-AKT1-aa120-433): residues 120-433 of P31749
AKT1Δ111–126-HA (P31749, form named): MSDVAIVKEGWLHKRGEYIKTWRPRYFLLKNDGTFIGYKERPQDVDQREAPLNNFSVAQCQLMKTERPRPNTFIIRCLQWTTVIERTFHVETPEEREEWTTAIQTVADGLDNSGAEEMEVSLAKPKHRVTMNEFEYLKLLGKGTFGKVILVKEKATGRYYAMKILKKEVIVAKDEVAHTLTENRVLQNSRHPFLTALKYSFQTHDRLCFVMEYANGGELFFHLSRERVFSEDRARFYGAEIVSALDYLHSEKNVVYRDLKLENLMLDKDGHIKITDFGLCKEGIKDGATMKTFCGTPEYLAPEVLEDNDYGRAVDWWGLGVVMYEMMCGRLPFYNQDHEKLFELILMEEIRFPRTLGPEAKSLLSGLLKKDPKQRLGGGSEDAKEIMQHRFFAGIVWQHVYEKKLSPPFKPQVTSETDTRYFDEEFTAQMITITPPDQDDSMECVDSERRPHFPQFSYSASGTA

The target of another experiment is AKT2, HA-tagged (UniProt P31751).
The next experiment addresses AKT3, HA-tagged (UniProt Q9Y243).
Experiment [2] concerns the target AKT1 lacking the PH domain, HA-tagged (pCDNA3-HA-AKT1-aa120-433) (UniProt P31749).
The target of experiment [3] is AKT1, wild type, HA-tagged (UniProt P31749).

Results are given in words; binding and its absence hold for the method and conditions named. Binding seen in cells or lysates may run through a third protein. Some binding calls cover weakened binding; strength is not graded here. Where a sequence is shown, tags or fusion partners need not be part of it.

Regarding “AKT1Δ111–126-HA (from UniProt P31749 1-480)”, the binding result in experiment [1] is reported as “no binding”.

With “AKT1, wild type, HA-tagged (from UniProt P31749 1-480)”, in experiment [1], the binding entry was “binds”.

B1: KSHV viral protein kinase (vPK), wild type, V5-tagged (protein, UniProt F5HGH5 1-444)
chain: T1 sequence
As for B1, the binding result with AKT2, HA-tagged is reported as “no binding”; with AKT3, HA-tagged, “no binding”; in experiment [2], “no binding”; in experiment [3], “binds”.
